Test results as given in patent EP4674438A1, “ANTIBODY-DRUG CONJUGATE CONTAINING ANTI-CD138 ANTIBODY” (priority 2023, dated 2024).

How the values were obtained:
[1] = ADC stability: aggregation on storage at 50°C, dynamic light scattering; type: physicochemical; conditions: storage at 50°C for 48 hours, Dulbecco's PBS pH 7.4; n = 3
Experimental: With the use of ADC15 (2.71 mg/ml), ADC16 (7.91 mg/ml), and ADC17 (5.61 mg/ml) prepared with phosphate-buffered saline (Dulbecco's PBS; pH 7.4), the molecular size was measured every 30 minutes with the elapse of time by dynamic light scattering measurement under storage conditions at 50°C for 48 hours, and a difference between the initial average molecular size and the average molecular size 48 hours after the initiation of the measurement was determined to evaluate the aggregation properties (n = 3).

[2] = test system: pancreatic cancer cell line BxPC-3 (CD138-positive); assay: Cytotoxicity mediated by ADC, CellTiter-Glo 2.0 luminescent cell viability assay, BxPC-3; type: cell-based; conditions: result in words
Experimental: (§1) The cytotoxicity of ADC15, ADC16, and ADC17 against the pancreatic cancer cell line BxPC-3 and the human T cell leukemia cell line Jurkat was evaluated by the CellTiter-Glo 2.0 luminescent cell viability assay (Promega). The BxPC-3 cells and the Jurkat cells were seeded at 350 cells/well and 150 cells/well, respectively, on a 384-well plate, ADC16 and ADC17 were added, and culture was performed at 37°C for 5 days. Thereafter, the reagent for CellTiter-Glo 2.0 luminescent cell viability assay was added. The relative luminescence was measured using the EnSpire Multimode Plate Reader (PerkinElmer), the data were analyzed using the 4 Parameter Logistic Model, and IC50 for each cancer cell line was determined. […] The antibody, the linker, and the payload of ADC16 are common with those of ADC17, although the number of drugs bound to an antibody molecule is different (ADC16: 3.78, ADC17: 7.91). ADC16 and ADC17 are considered to maintain the antigen-dependent cytotoxicity.

[3] = ADC stability: denaturation midpoint and aggregation initiation temperature (UNcle); type: physicochemical; conditions: Dulbecco's PBS pH 7.4, n = 3
Experimental: The concentration of ADC15 was adjusted to approximately 2.71 mg/ml with phosphate-buffered saline (Dulbecco's PBS; pH 7.4), that of ADC16 was adjusted to 7.91 mg/ml therewith, and that of ADC17 was adjusted to 5.61 mg/ml therewith. The denaturation midpoint temperature, the aggregation initiation temperature, and the particle size distribution of the antibody solutions were determined using a protein physical property evaluator UNcle (UNCHAINED LABS). Specifically, the denaturation midpoint temperature and the aggregation initiation temperature were determined by simultaneously performing fluorescent spectral measurement and static light scatter measurement while raising the temperature of the antibodies from 25°C to 95°C by 1°C every minute. On the basis of the results of the fluorescent spectral measurement, the midpoint temperature of peak shift; i.e., the denaturation midpoint temperature, was determined (n = 3) using the phenomenon that the peak center of the fluorescent spectra of amino acids internalized in the antibody would shift upon antibody denaturation. On the basis of the results of the static light scatter measurement, the temperature at which the scattered light at 266 nm becomes intensified; i.e., the aggregation initiation temperature, was determined (n = 3) using the phenomenon that the scattering intensity would be increased upon aggregation.

[4] = test system: human T cell leukemia cell line Jurkat (CD138-negative); assay: Cytotoxicity mediated by ADC, CellTiter-Glo 2.0 luminescent cell viability assay, Jurkat (Example 9); type: cell-based
Experimental: as §1

B1: ADC17 (conjugate)
heavy: QVQLVQSGAEVKKPGSSVKVSCKASGYTFSNYWIEWVRQAPGQGLEWIGEILPGTGRTIYNEKFKGRATFTADISTSTAYMELSSLRSEDTAVYYCARRDYYGNFYYAMDYWGQGTLVTVSS[human IgG1 constant region not spelt out]
light: DIQMTQSPSSLSASVGDRVTITCSASQGINNYLNWYQQKPGKAPKLLIYYTSTLQSGVPSRFSGSGSGTDYTLTISSLQPEDFATYYCQQYSKLPRTFGGGTKVEIKRTVAAPSVFIFPPSDEQLKSGTASVVCLLNNFYPREAKVQWKVDNALQSGNSQESVTEQDSKDSTYSLSSTLTLSKADYEKHKVYACEVTHQGLSSPVTKSFNRGEC
[1]
  Increase in average molecular size: 3.2 nm
[2]
  cytotoxicity against the CD138-positive BxPC-3 cells: exerted the cytotoxicity
[3]; 25°C to 95°C by 1°C every minute
  Denaturation midpoint temperature Tm2: 82.8 °C
[3]; static light scatter at 266 nm
  Aggregation initiation temperature Tagg266: 75.7 °C
[4]; Jurkat (CD138-negative), 37°C, 5 days
  IC50: 2.791 µg/mL
[4]; result in words
  cytotoxicity against the CD138-negative Jurkat cells: did not exert the cytotoxicity
